Assay results as given in ChEMBL document CHEMBL1157539, “Thousands of chemical starting points for antimalarial lead identification” (Nature, 2010).
“And” between values parts separate entries of the source, which are not always exact repeats. Equal entries are not always repeated. Whole data set: some 13,000 compounds, median “IFI” near 4, cut for the highest 2% near 17. The list shows a part of the results.

Assay: GSK_TCMDC: Inhibition Frequency Index (IFI). The number of non-kinase HTS assays where a compound showed > 50 % inhibition, expressed as a percentage of the number of such assays in which the compound was tested (-0 is zero)
Assay type: functional

Compound	IFI
CC(C)n1ncc2c(C(=O)Nc3ccc(C#N)c(Cl)c3)cc(C3CC3)nc21	2.78%
C=CCOc1ccccc1CNCC(O)c1cccc(C(F)(F)F)c1 (stereo not given)	1.56%
CCN(CC)CCN1C(=O)C(O)(c2ccccc2Cl)c2c1cc(C#N)cc2C(F)(F)F (stereo not given)	2.26%
COc1cc(C=CC(=O)N2CCC(CN3CCC(c4c[nH]c5ccccc45)CC3)CC2)cc(OC)c1	4.32%
Cc1ccc(CC(C)NC[C@H](O)c2cccc(Cl)c2)cc1 (stereo not given in full)	4.38% and 0.72%
O=[N+]([O-])c1ccc(Oc2c(Cl)cc(S(=O)(=O)NC3CCC(CN4CCC(c5c[nH]c6ccccc56)CC4)CC3)cc2Cl)c(Cl)c1 (stereo not given)	7.09%
Cn1nc(C(F)(F)F)cc1-c1ccc(C(=O)NC2CCC(CN3CCC(c4c[nH]c5ccccc45)CC3)CC2)s1 (stereo not given)	6.16%
COC(=O)c1ccc(CC(C)NCC(O)c2cccc(I)c2)cc1 (stereo not given)	3.65%
O=C(/C=C/c1ccc(Cl)c(Cl)c1)NC1CCC(CN2CCC(c3c[nH]c4cc(C(F)(F)F)ccc34)CC2)CC1 (stereo not given)	5.93% and -0%
CC(Cc1ccc(OCCOc2ccccc2)cc1)NCC(O)c1cccc(Cl)c1 (stereo not given)	6.38%
CC(C)c1ccc(C=CC(=O)NC2CCC(CN3CCC(c4c[nH]c5ccccc45)CC3)CC2)cc1 (stereo not given)	5.97%
C=C[C@H]1CN2CC[C@H]1C[C@@H]2[C@@H](O)c1ccnc2ccccc12	0.73%
CCOC(=O)c1c(C)n(C2CCCCCC2)c2cc(Br)c(O)cc12	6.34%
COc1ccc(OC)c(C=CC(=O)NC2CCC(CN3CCC(c4c[nH]c5ccccc45)CC3)CC2)c1 (stereo not given)	2.96%
CCCCCc1cc(O)c2c(c1)OC(C)(C)c1ccncc1-2	0.75%
CC[C@H]1CN2CC[C@@H]1C[C@H]2[C@H](O)c1cc(N2CCC(c3ccccc3)CC2)nc2ccc(OC)cc12	7.52%
CN(C)c1cccc(CCNCCc2c[nH]c3ccc(Cl)cc23)c1	10.4%
C[C@H](Cc1ccc(OCCCCCCOc2ccccc2)cc1)NC[C@@H](O)c1cc(Br)no1	13.5%
CCCCCCCN1C2CCC1CC(CCOc1ccnc3ccc(OC)cc13)C2 (stereo not given)	4.51%
CN1CC=C(c2c[nH]c3ccc(C(=O)c4nccs4)cc23)CC1	-0%
O=C(Nc1ccccc1C(F)(F)F)NC1CCC(CN2CCC(c3c[nH]c4ccccc34)CC2)CC1 (stereo not given)	4.29% and 2.14%
C=C[C@H]1CN2CC[C@H]1C[C@H]2[C@H](O)c1ccnc2ccccc12	-0%
CCc1nc(N)nc(N)c1-c1cccc(Cl)c1	1.5%

Compound	IFI
CCCc1cc(O)c2c3c(c(=O)oc2c1)CN(C)CC3	-0%
Cc1ccc(-n2nc(C)c3c2NC(=O)CSC3c2ccsc2)cc1 (stereo not given)	-0%
CC(=O)Nc1ccc(OCCN(CC(C)C)c2ccc(C#N)c(C(F)(F)F)c2)c(Cl)c1	0.97%
CCCCCc1cc(O)c2c3c(c(=O)oc2c1)CN(C)CC3	2.14%
O=C(NCc1ccccc1)c1nn(CCCN2CCC3(CC2)C(=O)NCN3c2ccccc2)cc1-c1ccc(Cl)c(Cl)c1	24.3%
COc1ccccc1CNCC(O)c1cc(C(F)(F)F)ccc1C(F)(F)F (stereo not given)	0.82%
O=C(/C=C/c1ccc(Cl)c(Cl)c1)N1CCC(CN2CCC(c3c[nH]c4cc(C(F)(F)F)ccc34)CC2)CC1	2.14%
O=C1Nc2cccc3c2C1(CCCCCN1CC=C(c2c[nH]c4ccccc24)CC1)CCC3 (stereo not given)	0.74%
O=C(/C=C/c1ccc(Cl)c(Cl)c1)N1CCC(CN2C3CCC2CC(c2c[nH]c4ccccc24)C3)CC1 (stereo not given)	5.93%
CC(=O)C1(c2ccccc2)CCN(CCC2(c3ccc(Cl)c(Cl)c3)CN(C(=O)C3CCCCC3)CCO2)CC1 (stereo not given)	7.28%
O=C(NC1CCC(CN2CCC(c3c[nH]c4ccccc34)CC2)CC1)c1cc(-c2ccc(F)cc2F)ccc1O (stereo not given)	1.52%
CN(Cc1ccccc1)C1CCN(CCc2c[nH]c3ccc(F)cc23)CC1	2.13%
O=C(NC1CCC(CN2CCC(c3c[nH]c4ccccc34)CC2)CC1)c1cc(-c2ccccc2Cl)n(-c2cccc(Cl)c2)n1 (stereo not given)	8.11%
CN1CCC(O)(c2ccc(Br)cc2)C(C(O)c2ccc(Br)cc2)C1 (stereo not given)	3.55%
N#Cc1ccc(N(CCCO)Cc2ccccc2C(F)(F)F)cc1C(F)(F)F	3.55%
COc1cc(/C=C/C(=O)NC2CCC(CN3CCC(c4c[nH]c5ccccc45)CC3)CC2)ccc1O (stereo not given)	5.67% and 7.04%
CN1CC=C(c2c[nH]c3ccc(Oc4ccccc4)cc23)CC1	3.68%
CC(C)N(C)C(=O)n1cnc(S(=O)(=O)C2CC3CCC2C3)n1 (stereo not given)	2.76%
COc1cccc(C2(NC[C@@H](O)[C@H](Cc3ccccc3)NC(=O)c3ccccc3)CCCCC2)c1	6.57%
CNCC(O)c1cc(Cl)c(Cl)cc1C (stereo not given)	-0%
COc1cccc(CN2CCC(CCOC(c3ccccc3)c3ccccc3)CC2)c1O	3.1%
O=C(C=Cc1cccc(Cl)c1Cl)NC1CCC(CN2CCC(c3c[nH]c4ccccc34)CC2)CC1 (stereo not given)	2.24% and 6.67%
Fc1ccc(N(c2nc(-c3cc(F)cc(C(F)(F)F)c3)cs2)C2CCNCC2)cc1	17.1%

Compound	IFI
O=C(/C=C/c1ccc(Cl)c(Cl)c1)NCC1CCCC(CN2CCC(c3c[nH]c4ccccc34)CC2)C1 (stereo not given)	6.38%
CC(NC(C)(C)C)C(O)c1ccc(Cl)c(C(F)(F)F)c1 (stereo not given)	0.77%
COc1ccc(OC)c(C(O)CNC(C)C)c1 (stereo not given)	-0%
CC(C)(C)c1ccc(Cn2nc(C(=O)N3CCN(C(=O)C4CCCO4)CC3)c3ccccc32)cc1 (stereo not given)	2.13%
O=C(/C=C/c1c(Cl)cccc1Cl)NC1CCC(CN2CCC(c3c[nH]c4ccccc34)CC2)CC1 (stereo not given)	7.3% and 6.02%
CCCCCCCc1cc(O)c2c(c1)OC(C)(C)c1ccncc1-2	0.72%
CNC(=O)c1ccc2[nH]cc(C3CCN(CC4CCC(NC(=O)/C=C/c5ccc(Cl)c(Cl)c5)CC4)CC3)c2c1 (stereo not given)	0.75%
CC(C)CNCc1ccc(-c2ccc(CN(C(=O)Nc3ccccc3)C3CCN(Cc4ccccc4)CC3)cc2)cc1	4.93%
C[C@H](Cc1ccc(OCCCCCCOc2ccccc2)cc1)NC[C@H](O)c1cccc(Cl)c1	7.64%
CN(C)CCC(=O)c1ccccc1	0.73%
CC[C@H]1CN2CC[C@H]1C[C@@H]2[C@@H](O)c1ccnc2ccc(OC)cc12	-0%
NCC(=O)c1cc2c(cc1N)OCCO2	3.57%
COc1ccc(C=CC(=O)NC2CCC(CN3CCC(c4c[nH]c5ccccc45)CC3)CC2)cc1OC (stereo not given)	5.8% and 3.7%
CC(Cc1ccc(OCCOc2ccccc2)cc1)NCC(O)c1cccc(C(F)(F)F)c1 (stereo not given)	2.9%
CC[C@H]1CN2CC[C@@H]1C[C@H]2[C@H](O)c1cc(-c2ccc(Cl)c(Cl)c2)nc2ccc(O)cc12	3.65%
COC(=O)c1ccc(CC(C)NCC(O)c2cc(Cl)c(N)c(Cl)c2)cc1 (stereo not given)	2.78%
CCOC(=O)c1c(CN2CCN(C)CC2)n(Cc2ccccc2)c2cc(Br)c(O)cc12	5.56%
C/C=C1/CN2CC[C@H]1C[C@H]2[C@H](O)c1ccnc2ccc(O)cc12	0.8%
O=C(NC1CCC(CN2CCC(c3c[nH]c4ccccc34)CC2)CC1)c1cnn(-c2ccccc2)c1-c1ccccc1Cl (stereo not given)	8.78%
COc1coc(C(=O)NC2CCN(CC3(c4ccc(Cl)cc4)CCC3)CC2)c1OC	7.14%
O=C(/C=C/c1ccc(Cl)c(Cl)c1)NCC1CCC(N2CCC(c3c[nH]c4ccccc34)CC2)CC1 (stereo not given)	6.43%
CN1CC[C@H](N(Cc2ccccc2F)c2ccc(C#N)c(Cl)c2)C1	5.41%
CN(c1cc(NC(=O)c2cccs2)ccn1)C1CCN(Cc2cccc(F)c2)CC1	5.88%

Compound	IFI
O=C(NC1CCC(CN2CCC(c3c[nH]c4ccccc34)CC2)CC1)[C@H]1Cc2ccccc2CN1 (stereo not given in full)	5.71%
O=C(NC1CCC(CN2CCC(c3c[nH]c4ccccc34)CC2)CC1)c1ccc(-c2cc(C(F)(F)F)ccc2Cl)o1 (stereo not given)	1.46%
Oc1ccc2[nH]cc(C3=CCN(CCc4ccccc4)CC3)c2c1	2.24%
S=C(NCCc1ccc(Cl)cc1)N1CCC(CN2CCC(c3c[nH]c4ccccc34)CC2)CC1	6.38%
CC(Cc1ccc(OCc2ccc(CCN(C)C)cc2)cc1)NCCc1cccc(Cl)c1 (stereo not given)	5.84%
Cc1[nH]c2ccc(O)cc2c1C1CCN(CC2CCC(NC(=O)/C=C/c3c(Cl)cccc3Cl)CC2)CC1 (stereo not given)	1.47%
O=C(NC1CCC(CN2CCC(c3c[nH]c4ccccc34)CC2)CC1)c1[nH]c(=O)[nH]c(=O)c1F (stereo not given)	0.77%
COc1ccc(F)cc1-c1csc(N(c2ccc(F)cc2)C2CCNCC2)n1	14.4%
CC(=O)Nc1ccc2[nH]cc(C3CCN(CC4CCN(C(=O)/C=C/c5ccc(Cl)c(Cl)c5)CC4)CC3)c2c1	1.46%
C=C1C2CC(=O)O[C@@H]3C[C@H]4C(C)=CC(=O)[C@@H](O)[C@]4(C)[C@H]4[C@](O)(OC[C@]234)[C@H]1O (stereo not given in full)	6.11%
COc1ccc2[nH]cc(C3=CCN(Cc4ccccc4)CC3)c2c1	1.54%
CC[C@H]1CN2CC[C@@H]1C[C@H]2[C@H](O)c1cc(N2CCC(CO)CC2)nc2ccc(OC)cc12	-0%
CC(Cc1ccc(NC(=O)CCNCc2ccccc2)cc1)NCCc1cccc(Cl)c1 (stereo not given)	32.4%
CCOC(=O)c1c(C)n(C2CCCCC2)c2cc(Br)c(O)cc12	3.45%
Cc1cccc(C(=O)Nc2ccnc(N(C)C3CCN(Cc4cccc(O)c4)CC3)c2)c1	7.5%
Cc1c(C)c2c(c(C)c1O)CC[C@](C)(C(=O)N1CCC(CN3CCC(c4c[nH]c5ccccc45)CC3)CC1)O2	9.92%
CN(c1ccc(NC(=O)CCOc2ccccc2)cc1)C1CCN(Cc2cccc(O)c2)CC1	9.76%
Cc1ccc(CC(C)NCC(O)c2cccc(C(F)(F)F)c2)c(C)c1 (stereo not given)	5.97%
CC(=O)N(Cc1ccccc1-c1cccc(CNCc2ccc3c(c2)OCO3)c1)C1CCN(Cc2ccccc2)CC1	5.26%
COCCNCc1cccc(-c2ccccc2CN(C(=O)Nc2ccccc2)C2CCN(Cc3ccccc3)CC2)c1	5.84%
COC(=O)c1ccc(CC(C)NCC(O)c2ccc(Cl)c(Cl)c2)cc1 (stereo not given)	3.65%
